The text below walks through data of the supplement of paper PMC10441789.

The other results are listed elsewhere or left out. Antibody binding of pooled human sera (four to six donors per pool; dilution not stated) to peptides of the Trypanosoma cruzi antigen TSSA on microarrays. Quantile-normalised fluorescence in arbitrary units, mean of duplicate arrays; higher = more binding. No active / inactive call. The uninfected pools are read here as the healthy donors of the same country. The strongest signals lie near the top of the scale (about 60,000).

The test has as its system pooled sera of uninfected people, Brazil. Kind of test: antibody binding signal (normalised fluorescence) (arbitrary fluorescence units); higher = stronger serum antibody binding to peptide. On the procedure:
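Microarray of overlapping 15-residue peptides of the four Trypanosoma cruzi TSSA reference variants and 8- to 13-residue peptides of TSSAII 24-62, probed with one serum pool per country.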
Sequence GSTSSTPPSGTENKP returned an antibody binding signal of 559.
Then PSGTEKKAAAGEAPS, with 224; and GGSTSSTPP, with 163.
With PPGTDKKTAAGGTPS the figure was 720.
GTENKPATG registered an antibody binding signal of 337.
With TGEAPSQPGASSGEA the figure was 147.
ANGGSTSSTP returned an antibody binding signal of 252.
Take NKPATGEAPSQ: the antibody binding signal was 315.
As for TSSTPPGTDKKTAAG, the antibody binding signal is 127.
The sequence GSTSSTPPS had an antibody binding signal of 218.
TPPSGTEKKAAAGEA came in with an antibody binding signal of 392.
Consider GASSGEAEA, for which the antibody binding signal came to 138.
In turn, SACTTANGGSTSSTP had an antibody binding signal of 267.
ATGEAPSQPG returned an antibody binding signal of 305.
For the sequence QPGASSGEAEASS, the antibody binding signal stood at 137.
With ANGGSTSST, the antibody binding signal turned out to be 313.
On to TAAGEAPSPSGASSG, for which the antibody binding signal came to 2410.
Take EAPSQPGA: the antibody binding signal was determined as 213.
For SQPGASSGE, the antibody binding signal was determined as 168.
Then APSQPGASSGEAEAS, with 132; and GASSGEAE, with 94.9.
As to SSTPPSGTENK, the antibody binding signal came out at 268.
As to CTTANGGSTSSTPPG, the antibody binding signal was found to be 937.
The sequence ISTPPSGTEKKAAAG registered an antibody binding signal of 149.
As to PPSGTDKKTAAGEAP, the antibody binding signal is 369.
With TDKKTAAGGTPSPSG, the antibody binding signal turned out to be 1370.
Then STSSTPPSGTENK, with 263; and KTAAGEAPSPSGASS, with 222.
On to EAPSQPGASSG, for which the antibody binding signal came to 297.
Turning to STSSTPPSG, the antibody binding signal amounted to 387.
Then SSGEAEASS, with 106; and TACTTANGGSTSSTP, with 214; and TEKKAAAGEAPSPSG, with 169.
For TANGGSTSSTPP, the antibody binding signal turned out to be 271.
Regarding AGEAPSPSGASSGEA, the antibody binding signal came out at 138.
For the sequence SGEAEASS, the antibody binding signal was 83.1.
GGTPSPSGASSGEAE displayed an antibody binding signal of 162.
Consider SSTPPSGTE, for which the antibody binding signal was found to be 96.1.
QPGASSGEAEA registered an antibody binding signal of 116.
Sequence TPSPSGASSGEAEAS yielded an antibody binding signal of 120.
